This note sets out measurements from PubChem BioAssay AID1508624 (National Center for Advancing Translational Sciences (NCATS), 2021).

About 120 (0.25%) of roughly 48,000 compounds were called active. Another 4% or so got no clear call; they are omitted. Calls come from the whole dose curve; as a rule, active = well fitted activation curve with a large enough effect; inconclusive = small, poorly fitted or top-dose-only effect, or another doubt; inactive = no such curve, though single readings can be large or run the other way. Some of the results follow.

This assay is described as follows: Primary qHTS for Identification of Small Molecule Activators of Huntingtin-Antisense Promoter Activity. Note: nearly all actives have a fitted effect of over 55% in size. The note with it: HEK293 HTT-AS promoter firefly luciferase reporter, 24 h; series mostly up to 57.5 µM; activity change, positive = activation: at the top concentration. The procedure, abridged:
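Luminescence was read after Dual-Glo reagent and a 10 min room-temperature incubation. Values were normalized to vehicle (0% activity) and zero RLU (-100% activity). Reporter HEK293 cells had been exposed to compounds (up to 57.5 uM final) for 24 h.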
For orientation: In qHTS, concentration-response curves come from the screen itself.
Consider `COc1ccccc1NC(=O)c1nc(SCc2ccc(F)cc2)ncc1Cl`, for which the “activity change, positive = activation” value is inactive: -2.57%. For `CCc1ccc(N2CCn3c2nc2c3c(=O)n(CCc3ccccc3)c(=O)n2C)cc1`, the “activity change, positive = activation” value is inactive: -16.9%. On to `Cc1cccc(Cn2c(=O)n(-c3ccc(Cl)c(Cl)c3)c(=O)c3c(C)c(C)sc32)c1`, for which the “activity change, positive = activation” value was inactive: 9.82%. Under `Cc1ccc2nc(NC(=O)CSc3nccn3Cc3ccccc3)sc2c1` stands inactive: -27.3%. As to `CCOCCc1nnc(NC(=O)C(=O)c2cc(C)n(-c3cccc(Cl)c3)c2C)s1`, the “activity change, positive = activation” value is inactive: 10.1%.

As to `Cc1ccc(N(CC(=O)N2CCN(c3cc(Cl)ccc3C)CC2)S(=O)(=O)c2c(C)noc2C)cc1`, the “activity change, positive = activation” value was inactive: -20.8%. As to `Clc1ccc(-c2nc3ccccn3c2Nc2ccc3c(c2)OCCO3)s1`, the “activity change, positive = activation” value was inactive: 6.53%. Under `COc1ccc(NC(=O)c2sc3nc(C)c(C(=O)Nc4ccc(C)cc4C)c(-c4cccs4)c3c2N)cc1` stands inactive: -20%; under `CCOc1ccc(NC(=O)C(=O)NCCc2csc(-c3ccc(C)cc3)n2)cc1`, inactive: -7.33%. With `Cc1noc2ncnc(NCc3ccccc3Cl)c12`, the “activity change, positive = activation” value was inactive: -45.4%. For `COc1ccc(OC)c(NC(=O)c2sc3nc4c(cc3c2N)CCCCCC4)c1`, the “activity change, positive = activation” value was inactive: -32.9%.

Take `Cc1ccc(C)c(N2CCN(C(c3ccc(F)cc3)c3nnc(-c4ccccc4)o3)CC2)c1` (stereo not given): the “activity change, positive = activation” value is inactive: -13.1%.

For the compound `CCN(Cc1ccccc1)C(=O)Cn1c(=O)oc2cc(S(=O)(=O)N3CCCCCC3)ccc21`, the “activity change, positive = activation” value is inactive: -26.3%. Under `Cc1ccccc1CSc1cn(CC(=O)N2CCCC2)c2ccccc12` stands inactive: -11.2%; under `COc1ccc(-c2cc(C(F)(F)F)nc(NCCc3ccccc3)n2)cc1`, inactive: 9.34%. As for `COC(=O)c1c(SCC(=O)Nc2cc(F)ccc2F)[nH]c2ccc(C)cc2c1=O`, the “activity change, positive = activation” value is inactive: 18.1%. Regarding `Cc1c(-c2ccc(Cl)cc2)c(=O)oc2c(CN3CCOCC3)c(O)ccc12`, the “activity change, positive = activation” value is inactive: -11.1%. For the compound `O=C(NCCc1ccccc1)c1cc2sccc2n1Cc1ccc(F)cc1`, the “activity change, positive = activation” value was inactive: -13.6%. Take `COC(=O)c1cccc(CN2C(=O)SC(Nc3ccc(Br)cc3)C2=O)c1` (stereo not given): the “activity change, positive = activation” value was inactive: -20.5%. The result for `Cc1ccc(NC(=O)CSc2nc3ccc(NC(=O)c4ccco4)cc3s2)c(C)c1` reads inactive: -27.4%.

As for `CSc1cccc(NC(=O)C(c2ccccc2)N2Cc3ccccc3C2=O)c1` (stereo not given), the “activity change, positive = activation” value was inactive: -11.8%. On to `CNC(=O)c1c(NC(=O)c2ccc(S(=O)(=O)N3CCCC(C)C3)cc2)sc2c1CCC2` (stereo not given), for which the “activity change, positive = activation” value was inactive: -14.2%. The result for `CC(C)(C)c1ccc(OCC(=O)NC(Cc2c[nH]c3ccccc23)C(=O)O)cc1` (stereo not given) reads inactive: -10.4%; that for `CCCCn1nc(NC(=O)c2cccc(Cl)c2)c2cc3ccc(C)cc3nc21`, inactive: 3.22%. Under `CC(=O)Nc1ccc(NS(=O)(=O)c2cc3c4c(c2)CC(=O)N4CCC3)cc1` stands inactive: -6.2%; under `COc1cc(C(=O)NCCS(=O)(=O)N2CCN(c3ccccc3)CC2)cc(OC)c1OC`, inactive: -3.91%. For `CN[C@H]1CC[C@@H](c2ccc(Cl)c(Cl)c2)c2ccccc21`, the “activity change, positive = activation” value is inactive: -38.2%. Regarding `Cn1cc(S(=O)(=O)c2ccc(Cl)cc2)c(=O)c2cc(F)c(N3CCOCC3)cc21`, the “activity change, positive = activation” value was inactive: -23.9%. Under `COc1ccc(-c2cc3nc(C)c(CCC(=O)N4CCN(c5cc(C)ccc5C)CC4)c(C)n3n2)c(OC)c1` stands inactive: -21.7%.

With `CCOc1ccc(NC(=O)CN2CCN(CC(=O)Nc3ccc(OC)cc3)CC2)cc1`, the “activity change, positive = activation” value is inactive: -2.74%.

Regarding `COc1ccc(N2CCN(S(=O)(=O)CCNC(=O)c3ccc(OC(C)C)cc3)CC2)cc1`, the “activity change, positive = activation” value was inactive: -0.115%. For `COc1ccccc1/C=C/c1nc(C#N)c(N2CCN(c3ccccc3)CC2)o1`, the “activity change, positive = activation” value is inactive: -0.226%. Under `CN(C(=O)CSc1nc2ccc(NC(=O)COc3ccccc3Cl)cc2s1)c1ccccc1` stands inactive: -6.26%; under `Cc1ccc(Nc2c(-c3ccccc3O)nc3cc(C)ccn23)cc1`, inactive: -8.08%. For the compound `COc1ccccc1N1CCN(C(=O)C2CCCN(S(=O)(=O)c3ccc4c(c3)oc(=O)n4C)C2)CC1` (stereo not given), the “activity change, positive = activation” value was inactive: -40.7%.

Turning to `Cc1ccc(C)c(NC(=O)Cn2cnc3nc4c(cc3c2=O)CCCC4)c1`, the “activity change, positive = activation” value was inactive: 0.0509%. In the case of `CCOC(=O)c1cccc(NC(=O)c2ccc3snnc3c2)c1`, the “activity change, positive = activation” value was inactive: -3.12%. With `CCc1ccc(-n2c(N3CCN(c4cccc(C)c4C)CC3)nc3ccccc3c2=O)cc1`, the “activity change, positive = activation” value was inactive: -19%.

As for `Cc1ccc(Nc2nc(N)nc(N)c2S(=O)(=O)c2ccccc2)cc1`, the “activity change, positive = activation” value was inactive: -28.7%. As to `CC1CC(=O)NN=C1c1ccc(NCC(C)(C)NCC(O)COc2cc(Cl)ccc2C#N)cc1` (stereo not given), the “activity change, positive = activation” value was inactive: -6.83%. Consider `COC(=O)c1sccc1S(=O)(=O)N(CC(=O)NCc1ccccc1)c1ccc(C)cc1`, for which the “activity change, positive = activation” value is inactive: -16.5%. Under `COc1ccccc1C(=O)Nc1nc(-c2ccc(Br)cc2)ns1` stands inactive: -6.05%. As to `Cc1nc2ccn(Cc3cccnc3)c(=O)c2cc1C(=O)N1CCN(c2ccccc2)CC1`, the “activity change, positive = activation” value was inactive: -2.65%. For the compound `COC(=O)C1CCN(C(c2ccccc2Cl)c2sc3nc(-c4ccco4)nn3c2O)CC1` (stereo not given), the “activity change, positive = activation” value was inactive: 8.63%. Take `CCOC(=O)CN1C(C(=O)c2ccccc2)=C(OC(=O)c2ccccc2)c2ccccc2S1(=O)=O`: the “activity change, positive = activation” value is inactive: -9.7%. For the compound `Cc1ccc(NC(=O)C2CCCN(S(=O)(=O)c3ccc(F)cc3)C2)cc1` (stereo not given), the “activity change, positive = activation” value was inactive: -12%. In the case of `CCOC(=O)CSc1nnc2n(-c3ccccc3)c(=O)c3c4c(sc3n12)COC(C(C)C)C4` (stereo not given), the “activity change, positive = activation” value was inactive: 1.58%. Regarding `CCCCN(CC)CCNC(=O)C1CCN(c2nnc(C)c3c(C)n(-c4ccc(C)cc4)nc23)CC1`, the “activity change, positive = activation” value is inactive: -12.6%. Consider `Cc1cc2c(cc3c(=O)n(CC(=O)NCc4ccccc4Br)ncn32)s1`, for which the “activity change, positive = activation” value is inactive: -0.638%. `CCc1c(C)nc2nncn2c1NCc1ccc(OC)cc1`: the “activity change, positive = activation” value is inactive: -34.9%.

For `Cc1ccc(Cc2c(C)nc3c(-c4ccccc4)c(C)[nH]n3c2=O)cc1`, the “activity change, positive = activation” value was inactive: -41.9%. On to `Cc1ccc(-n2nc(C)c3c(C(=O)O)cc(C)nc32)cc1`, for which the “activity change, positive = activation” value was inactive: -4.64%.

With `Oc1ccccc1-c1nnco1`, the “activity change, positive = activation” value was inactive: 2.74%. In the case of `CCN(CC)c1ccc(NS(=O)(=O)c2ccc(-c3coc(C)n3)cc2)c(C)c1`, the “activity change, positive = activation” value is inactive: -30.5%. `CCN(CC)c1cc(C)c2cc(NC(=O)/C=C/c3ccccc3OC(C)C)ccc2n1`: the “activity change, positive = activation” value is inactive: -17.3%.

Consider `Cc1ccc(Oc2nc3ccccn3c(=O)c2/C=C(\C#N)c2nc3ccccc3s2)c(C)c1`, for which the activity change, positive = activation was inactive: 1.61% [at 11.5 µM, percent change from vehicle, -100% = no light]. For `Cc1cc(C)c2c(=O)c3c(oc2c1)C(=O)N(Cc1ccco1)C3c1ccc(F)cc1` (stereo not given), the “activity change, positive = activation” value is inactive: -9.6%. Consider `CC(=O)N1CCc2c(sc3c2c(=O)n(-c2cccc(Cl)c2)c(=O)n3Cc2ccc(F)cc2Cl)C1`, for which the “activity change, positive = activation” value is inactive: -28.5%. For the compound `Cc1nn(C)c2c1c(C(F)(F)F)cc(=O)n2CC(=O)N1CCN(c2ccccc2F)CC1`, the “activity change, positive = activation” value was inactive: 2.65%. On to `Cc1cc(-c2ccc(C)c(S(=O)(=O)N3c4ccccc4CC3C)c2)on1` (stereo not given), for which the “activity change, positive = activation” value is inactive: -46.9%.
